# From PMC4336329 (PLoS ONE, 2015)
# In all, about 310,000 compounds went through this assay and about 2,200 (0.71%) showed an effect of 50% or more. Effects have a minus sign here. Some of the results follow.
# Target: human ether-à-go-go-related gene (hERG) potassium channel (human, UniProt Q12809)
# Experiment: primary screen, population patch clamp on CHO cells stably expressing hERG
# human ether-à-go-go-related gene (hERG) potassium channel, sequence (Q12809 whole entry, looked up): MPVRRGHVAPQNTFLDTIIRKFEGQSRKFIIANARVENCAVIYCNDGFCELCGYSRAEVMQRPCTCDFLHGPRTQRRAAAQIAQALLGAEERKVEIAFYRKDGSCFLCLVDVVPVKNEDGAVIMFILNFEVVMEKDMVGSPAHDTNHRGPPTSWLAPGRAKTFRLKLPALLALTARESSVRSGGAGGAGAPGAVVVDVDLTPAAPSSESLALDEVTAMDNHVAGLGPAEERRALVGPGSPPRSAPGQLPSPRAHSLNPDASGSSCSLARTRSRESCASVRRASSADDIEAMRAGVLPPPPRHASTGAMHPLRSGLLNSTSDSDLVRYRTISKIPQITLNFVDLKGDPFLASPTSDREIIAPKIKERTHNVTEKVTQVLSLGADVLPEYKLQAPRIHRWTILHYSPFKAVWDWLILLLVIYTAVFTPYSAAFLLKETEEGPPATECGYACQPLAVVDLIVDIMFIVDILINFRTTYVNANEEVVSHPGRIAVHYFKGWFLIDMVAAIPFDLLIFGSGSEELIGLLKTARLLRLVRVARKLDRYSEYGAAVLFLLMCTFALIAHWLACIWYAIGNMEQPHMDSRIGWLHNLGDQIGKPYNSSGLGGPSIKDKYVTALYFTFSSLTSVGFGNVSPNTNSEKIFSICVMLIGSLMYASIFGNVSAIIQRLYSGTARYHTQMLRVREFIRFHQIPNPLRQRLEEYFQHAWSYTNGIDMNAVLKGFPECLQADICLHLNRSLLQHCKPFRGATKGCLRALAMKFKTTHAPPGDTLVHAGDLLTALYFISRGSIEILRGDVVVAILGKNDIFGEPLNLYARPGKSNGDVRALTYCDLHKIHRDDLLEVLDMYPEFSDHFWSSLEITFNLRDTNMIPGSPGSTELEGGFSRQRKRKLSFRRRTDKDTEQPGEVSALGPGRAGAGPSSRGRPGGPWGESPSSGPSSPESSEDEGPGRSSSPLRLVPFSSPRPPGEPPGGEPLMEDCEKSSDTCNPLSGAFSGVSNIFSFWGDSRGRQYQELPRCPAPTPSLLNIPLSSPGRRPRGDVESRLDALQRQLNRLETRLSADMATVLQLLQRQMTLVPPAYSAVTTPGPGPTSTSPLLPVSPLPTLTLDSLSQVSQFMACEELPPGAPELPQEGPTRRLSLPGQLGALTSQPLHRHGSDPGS
row,SMILES,"hERG current change (%, negative = inhibition) at 1uM [%]"
1,CCCCCCCn1c(=O)c(C(=O)OC)c(N)c2ccccc21,9.28
2,CCOc1ccccc1N(CC(=O)Nc1cc(OC)ccc1OC)S(=O)(=O)c1ccccc1,20.6
3,COCCN1C(=O)c2ccc(C(=O)Nc3cccnc3)cc2C1=O,10.9
4,CC1=C(C(=O)OC2CCCCC2)C(c2ccco2)n2ncnc2N1 (stereo not drawn),5.57
5,Cc1ccc(N2CC(O)Cn3c2nc2c3c(=O)n(C)c(=O)n2C)cc1 (stereo not drawn),13.5
6,CCCOP(=O)(c1ccc(N(C)C)cc1)C(O)c1cc(OC)ccc1OC (stereo not drawn),13.1
7,CC(C)NC(=O)c1ccc2c(c1)S(=O)(=O)c1ccccc1C2=O,20.3
8,COc1cccc(NC(=O)CCc2nc(-c3ccccc3F)no2)c1,8.74
9,O=C(O)c1ccc(N/N=C/c2ccc3nccnc3c2)cc1,8.83
10,O=c1nc(SCc2c(F)cccc2Cl)nc(-c2ccccc2)[nH]1,14.9
11,O=C(c1cccc(-n2cccc2)c1)N1CCN(S(=O)(=O)c2ccccc2)CC1,-0.678
12,CCNC(=O)c1ccc(OCC(=O)Nc2ccc(F)cc2)c(OC)c1,0.741
13,CCCn1nc(-c2nnc(-c3ccc(C)c(C)c3)o2)c2ccccc2c1=O,-7.16
14,Cc1ncc([N+](=O)[O-])n1CCOC(=O)c1cc(Cl)cc(Cl)c1N,-19.6
15,CCC(C)n1c(=N)c(C#N)cc2c(=O)n3cc(C)ccc3nc21 (stereo not drawn),-22
16,O=C(CSCC(=O)NCc1ccco1)NCc1ccco1,-9.26
17,O=S(=O)(c1cccs1)N1CCN(Cc2nc3ccccc3s2)CC1,8.4
18,O=c1cc(-c2ccccc2Cl)oc2cccc(O)c12,-6.04
19,CCN(CC)S(=O)(=O)c1ccc(NC(=S)NC(=O)CC(C)C)cc1,14.1
20,CC(CN1CCOCC1)OC(=O)C1COc2ccccc2O1.Cl (stereo not drawn),7.15
21,COc1ccc(-c2noc(CN(C)C(=O)c3ccc4c(c3)OCO4)n2)cc1,11.6
22,Cc1ccc(CN2CCN(/N=C/c3cc(Br)cc(Br)c3O)CC2)cc1,3.7
23,C=CCc1cc(OC)ccc1OCC(O)CN1CCN(c2ccc(OC)cc2)CC1.Cl (stereo not drawn),-38.1

row,SMILES,"hERG current change (%, negative = inhibition) at 1uM [%]"
1,O=P(Nc1c(Cl)cccc1Cl)(c1ccccc1)c1nc2c(s1)CCCC2 (stereo not drawn),8.68
2,COc1ccc(/C=C/c2c(-c3ccc(OC)cc3)oc3ccccc23)cc1,5.68
3,Cn1ccnc1SCC(=O)NC12CC3CC(CC(C3)C1)C2,20.3
4,Cc1ccc(OCC(=O)N(C)CCc2ccccn2)cc1,8.87
5,O=C(NCc1cccc(Br)c1)C1CC(c2ccccc2[N+](=O)[O-])=NO1 (stereo not drawn),1.77
6,CN(C)S(=O)(=O)c1ccc(C(=O)NCCOc2ccccc2)cc1,3.42
7,CSc1ccc(S(=O)(=O)NCCSC(C)(C)C)cc1,0.386
8,Cc1cccc(NC(=O)CCN2C(=O)c3ccccc3S2(=O)=O)c1C,8.97
9,Cc1cccc(C)c1NC(=O)NCCCN1CCN(c2ccccc2)CC1,-12.1
10,O=C1N(CCCN2C(=O)C3(OCCO3)c3ccccc32)c2ccccc2C12OCCO2,3.67
11,CC1CCN(c2ccc3nnc(CCC(=O)NCCCOC(C)C)n3n2)CC1,11.6
12,CC(=O)Nc1ccc(OCC(O)Cn2nc(C)c(C)c2C)cc1 (stereo not drawn),11.1
13,O=C(NC1CCCCCC1)c1cccc(COCC(F)(F)F)c1,0.152
14,CC(C)n1c(N2CCN(CC(=O)NCc3cccs3)CC2)nc2ccccc21,-30.9
15,CC(C)C(OC(=O)c1cccs1)C(=O)NCc1ccccc1 (stereo not drawn),0.497
16,CC1CCN(C(=O)Cn2c(SCC(=O)Nc3nccs3)nc3ccccc32)CC1,-5.8
17,COc1ccccc1N1CCN(/N=C/c2cc(Br)ccc2F)CC1,14.9
18,CCc1ccccc1NC(=O)Nc1cc(F)ccc1F,6.16
19,S=c1[nH]nc(-c2ccccc2)n1/N=C/C=C/c1ccco1,18.6
20,O=C(CCc1nnc(-c2ccsc2)o1)N1CCCCC1CCn1ccnc1 (stereo not drawn),2.53
21,CC(C)[C@H](NC(=O)N1CC(=O)Nc2ccccc21)C(=O)Nc1nccs1,24.4
22,CCC1CCCCN1C(=S)NC(=O)c1ccc(F)c(S(=O)(=O)N2CCOCC2)c1 (stereo not drawn),9.07
23,COc1ccc(N2CCC(CNC(=S)Nc3cccc(C)c3)C2)cc1 (stereo not drawn),13.7

row,SMILES,"hERG current change (%, negative = inhibition) at 1uM [%]"
1,O=C(O)c1ccc(-n2nc(C(F)(F)F)c3c2-c2ccoc2CC3)cc1,13.6
2,O=S(=O)(c1ccc2c(c1)OCCO2)N1CCN(c2nc(-c3cccnc3)nc3ccccc23)CC1,-2.23
3,CC(C)(C)C(=O)NC1(C(F)(F)F)NC(=O)N(c2ccc(F)cc2)C1=O (stereo not drawn),-4.36
4,COC(=O)c1cc(N2CCNCC2)nc2ccccc12.Cl,5.27
5,Cc1sc(-c2ccncc2)nc1OC(=O)c1ccc(F)cc1F,17.8
6,Fc1ccc(Cn2nnc(-c3ccc(Cl)cc3)n2)cc1,11.5
7,COc1ccc(C(=O)N/C(=C\c2ccccc2)C(=O)Nc2ccccc2C(=O)O)cc1,13.7
8,Cc1cc(C(=O)Nc2ccccc2N2CCOCC2)c(C)o1,2.21
9,CCc1cccc(C)c1NC(=O)CSc1nc(-c2ccccc2F)nc2nc[nH]c12,6.87
10,c1coc(C2OCC3(CO2)COC(c2ccco2)OC3)c1 (stereo not drawn),13.3
11,O=C(CCNC(=O)c1ccc(Br)cc1)NC1CCCCCC1,8.96
12,O=C(Nc1ccccc1)N1N=C(c2ccc(F)cc2)CC1c1ccc(F)cc1 (stereo not drawn),-2.22
13,COc1ccc(OCCSc2nnc(CCNC(=O)c3ccc(Cl)c(Cl)c3)n2C)cc1,-2.01
14,COc1cccc(CN2CCN(C(=O)Cc3ccccc3OC)CC2)c1,21.1
15,CC(=C/C(=O)[O-])/C=C/c1ccco1.[Na+],12.9
16,CCc1cc(=O)oc2c(C)c(OCC(=O)NCCCN3CCCC3=O)ccc12,8.98
17,c1ccc2c(NC3CCCC3)nnc(NC3CCCC3)c2c1,-70.4
18,O=C(/C=C/c1ccccc1)Nc1ccc(S(=O)(=O)N2CCOCC2)cc1,13.5
19,O=C(Nc1c(Cl)cc(Cl)cc1C(=O)NCCN1CCOCC1)c1cccc([N+](=O)[O-])c1,3.41
20,OCCNC(=S)Nc1cc(Cl)cc(Cl)c1,13.9
21,O=C(/C=C/c1ccco1)Nc1cccnc1Cl,13.5
22,Cc1ccc(NC(=O)COc2ccccc2)c(NC(=O)c2ccco2)c1,-0.0071
23,COc1ccc(OC)c(NC=C2C(=O)OC(C)(C)OC2=O)c1,14.6

row,SMILES,"hERG current change (%, negative = inhibition) at 1uM [%]"
1,NC(=O)CC(NC(=O)c1ccccc1)c1ccc(NCC2CC2)c([N+](=O)[O-])c1 (stereo not drawn),-11.3
2,O=C(O)C(O)C(O)c1nc2ccccc2[nH]1 (stereo not drawn),7.71
3,CN1CCc2c(sc3c2c(=O)n(-c2ccccc2)c2nnc(SCc4ccc(Cl)cc4)n32)C1,7.2
4,COc1ccc(-c2nc(CS(=O)CC(=O)NCc3ccc4c(c3)OCO4)c(C)o2)cc1 (stereo not drawn),-0.166
5,COc1ccc2[nH]cc(C(=O)N3CCCCC3)c(=O)c2c1,14.9
6,CCSc1nnc(NC(=O)CSC2=NN3CCCC(=O)N=C3S2)s1,4.54
7,Cc1cc(C)c(NC(=O)CSc2nc(=O)n3cc(C)ccc3n2)c(C)c1,11.3
8,O=C(O)C1C2CCC(O2)C1C(=O)Nc1ccccc1Br (stereo not drawn),20
9,COc1ccc(NC(=O)CSc2nnc3ccc(-c4ccncc4)nn23)cc1,8.08
10,Cl.N[C@@H](CO)c1nnc([C@H](CCC(=O)O)NC(=O)C2CCNCC2)o1,15.3
11,Cc1[nH]c2ccccc2c1C(=O)NS(=O)(=O)Nc1ccc(F)cc1,13.9
12,O=[N+]([O-])c1ccc(Cl)c(/C=N/N2CCN(Cc3ccccc3Cl)CC2)c1,-0.496
13,O=C(CSc1nnc(C23CC4CC(CC(C4)C2)C3)o1)Nc1ccc(N2CCOCC2)c(Cl)c1,14.6
14,c1ccc2cc(OCCOCCOc3ccc4ccccc4c3)ccc2c1,2.25
15,COc1ccc(OCC(O)CN2CCc3ccccc3C2)cc1.Cl (stereo not drawn),-2.53
16,CCN(CC(=O)Nc1ccc2c(c1)OCCO2)C(=O)CCOc1ccccc1,6.8
17,CCOc1ccc(CCNC(=O)CN2C(=O)c3cccnc3Oc3ccc(C)cc32)cc1OCC,3.44
18,Cc1ccc(OCc2ccc(C(=O)NN)o2)cc1C,10.9
19,Cc1ccc(C(=O)c2cnc3ccccc3c2-c2ccccc2)cc1,7.14
20,O=C(CCn1c(=O)sc2ccccc21)Nc1ccon1,4.85
21,NC(=O)C1CCN(Cc2nc3c(Br)cc(Br)cc3c(=O)[nH]2)CC1,4.73
